Source: PMC6919601, “Identification of Plasmodium dipeptidyl aminopeptidase allosteric inhibitors by high throughput screening” (PLoS ONE, 2019)
Values joined by “and” are separate entries in the source; they are usually repeats but may differ in a detail not shown here. Equal values may be shown once. Among all 110,000 compounds or so, about 230 (0.21%) showed an effect of 50% or more. The list shows a part of the results.

Molecular target: DPAP1 (Plasmodium falciparum, UniProt Q8IIJ9)
Test: primary screen, percent inhibition; read by cleavage of a fluorogenic dipeptide substrate; higher = more effect of the substance
Set-up: species or system P. falciparum D10 trophozoite lysates; single well
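Note: 30 min substrate incubation versus DMSO and 10 µM JCP410 controls.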

DPAP1, sequence (Q8IIJ9 whole entry, looked up): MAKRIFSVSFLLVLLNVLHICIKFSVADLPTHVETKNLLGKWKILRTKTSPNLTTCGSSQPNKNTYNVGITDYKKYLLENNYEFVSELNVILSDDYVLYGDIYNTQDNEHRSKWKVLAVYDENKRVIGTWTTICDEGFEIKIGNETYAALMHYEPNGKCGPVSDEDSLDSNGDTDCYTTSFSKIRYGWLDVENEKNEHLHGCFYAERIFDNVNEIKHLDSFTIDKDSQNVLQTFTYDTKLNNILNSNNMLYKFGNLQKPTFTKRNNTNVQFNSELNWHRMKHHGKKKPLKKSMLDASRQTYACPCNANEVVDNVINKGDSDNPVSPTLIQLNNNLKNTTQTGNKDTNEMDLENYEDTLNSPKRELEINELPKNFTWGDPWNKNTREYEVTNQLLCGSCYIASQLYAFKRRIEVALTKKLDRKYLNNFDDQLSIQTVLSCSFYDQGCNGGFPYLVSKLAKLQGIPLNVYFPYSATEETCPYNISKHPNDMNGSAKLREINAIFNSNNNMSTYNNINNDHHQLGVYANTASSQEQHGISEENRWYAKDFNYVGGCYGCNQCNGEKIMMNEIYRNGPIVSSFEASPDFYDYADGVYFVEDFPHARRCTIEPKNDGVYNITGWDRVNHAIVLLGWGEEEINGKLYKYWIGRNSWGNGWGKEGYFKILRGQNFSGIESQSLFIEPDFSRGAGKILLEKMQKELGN

Row | Compound | % Inhibition @ 10 uM
1 | CC(C)c1c(C#N)c(N)nc(SCC(=O)c2cc3ccccc3oc2=O)c1C#N | 8.38%
2 | Cc1nc2nc(NC(=O)C(C)(C)C)nn2c(O)c1C | 5.2%
3 | O=C(CSc1c2c(nc3ccccc13)CCCC2)N1CCN(c2ccccn2)CC1 | -5.34%
4 | O=C1C2CC=CCC2C(=O)N1c1ccc(Cl)cc1 (centres unmarked) | 6.14%
5 | Cc1ccc(-c2noc(CNC(=O)c3cc(C)cc(C)c3)n2)cc1 | -1.22%
6 | CCc1ccc(OCC(=O)NCc2ccccc2)cc1 | -3.09%
7 | Clc1ccccc1CSc1nc2ccccc2[nH]1 | 6.06%
8 | COc1cccc(CSc2nc3nccnc3c(=O)n2CCc2c[nH]c3ccccc23)c1 | -1.26%
9 | COc1cccc(NC(=O)CN(c2cc(C)ccc2C)S(=O)(=O)c2ccccc2)c1 | -1.55% and 2.08%
10 | CCCN1CCN(S(=O)(=O)c2ccc(-n3cnnn3)cc2)CC1 | 2.29%
11 | Cc1ccsc1/C=C1\SC(=O)N(C)C1=O | 3.79%
12 | COc1ccccc1CC(C)NCC(C)(C)CN(C)C (centres unmarked) | -3.6%
13 | CCNC(=S)N(CCc1c(C)[nH]c2ccc(C)cc12)Cc1ccccn1 | -2.29%
14 | Cc1ccc2c(=O)cc(C(=O)NCc3ccncc3)oc2c1C | 1.7%
15 | COCCN(Cc1ccco1)C(=O)Cn1ncc2c(=O)oc3ccc(C)cc3c21 | -1.7%
16 | Cc1ccc(C)c(OCC(=O)Nc2ncccn2)c1 | 0.795%
17 | COc1cc(NC(C)=O)ccc1NC(=O)c1ccco1 | -7.76%
18 | CCOC(=O)N1CCN(C2=NS(=O)(=O)C(c3ccc(F)cc3)=C2C)CC1 | -2.07%
19 | CCOC(=O)/C(C#N)=C(/C)c1ccc(OC)cc1 | 1.54%
20 | O=S(=O)(c1ccccc1)c1nnn2c1nc(NCc1ccccc1Cl)c1sccc12 | -0.538%
21 | OC(COc1ccc(OCC(O)CN2CCCC2)cc1)CN1CCCC1 (centres unmarked) | 5.09%
22 | O=C(N/C(=C/c1ccccc1)P(=O)(O)c1ccccc1)c1ccccc1 | 2.7%
23 | CCOCCCNC(=O)CCCn1c2ccccc2c2cnnc(O)c21 | -0.281%
24 | CSc1ccc(Cn2nnc(C(=O)NCc3ccc(C)cc3)c2N)cc1 | 2.93%
25 | COc1ccc(-c2ccc3c(N)c(C(=O)Nc4ccc(F)cc4)sc3n2)cc1OC | -1.6%

Row | Compound | % Inhibition @ 10 uM
26 | O=C(N/C(=C\c1ccc2c(c1)OCO2)C(=O)N1CCOCC1)c1ccco1 | 0.587%
27 | O=C1c2n[nH]c(-c3ccccc3O)c2C(c2cccc(Oc3ccccc3)c2)N1CC1CCCO1 (centres unmarked) | -1.35%
28 | CC1CCCC(N2CCCC(C(N)=O)C2)C1 (centres unmarked) | -4.75%
29 | O=C1OC2(CCCCC2)OC(=O)C1=Cc1ccc(-c2ccc(Cl)c(C(=O)O)c2)o1 | 0.146%
30 | C=Cc1ccc(Cn2c(C(=O)O)c(CNCc3ccc(OC)cc3OC)c3ccc(C)cc32)cc1 | 5.12%
31 | CC(C)COC(=O)Nc1nn2c(-c3ccccc3)nnc2s1 | -6.65%
32 | O=C(NCc1ccc2c(c1)OCO2)c1c(Cl)cccc1Cl | 0.145%
33 | COC(=O)c1ccc(-c2ccco2)n1CC(=O)N1CCc2ccccc2C1 | 4.51%
34 | CC/N=C1\S/C(=C\c2cc(Cl)c(OC)c(OC)c2)C(=O)N1CC | -4.97%
35 | CCn1c(SCC(=O)NCCc2ccccc2)nc2c(c1=O)SCC2 | -1%
36 | O=[N+]([O-])c1ccc(Cl)c2cccnc12 | -7.35%
37 | COc1ccccc1OCc1nc(C#N)c(N2CC(C)CC(C)C2)o1 (centres unmarked) | -0.958%
38 | Cc1sc2c(c1C)CSC(C(=O)NCc1ccccn1)=C2 | 16.6%
39 | Cc1ccc2c(c1)Cc1c(O)nc(-c3ccc(O)cc3)nc1O2 | 0.655%
40 | Cc1ccsc1-c1nc(CSCC(=O)O)c(C)o1 | 1.42%
41 | CN(C(=O)Cn1nc(Cc2cccnc2)c2ccccc2c1=O)C1CCCCC1 | -2.92%
42 | CC(C)(C)c1ccc(-c2cc(N)n(S(=O)(=O)c3ccccc3)n2)cc1 | 1.15%
43 | O=C(NC(c1ccccc1)c1c(O)ccc2ccccc12)c1ccc(Br)cc1 (centres unmarked) | -4.08%
44 | Cc1cc(Cl)ccc1OCC(=O)Nc1ccc(S(=O)(=O)N2CCC(C)CC2)cc1 | -1.65%
45 | O=S(=O)(c1ccc(Cc2ccc(S(=O)(=O)N3CCCCC3)cc2)cc1)N1CCCCC1 | 3.25%
46 | CCOC(=O)c1c(NC(=O)CCCCCN2C(=O)c3ccccc3C2=O)sc2c1CCCC2 | -4.77%
47 | CC(C)=C1C(=O)NN(c2ccccc2)C1=O | -3.27%
48 | Cc1sc(NC(=O)COc2ccccc2)nc1-c1ccccc1 | 4.37%
49 | Cc1ccc(S(=O)(=O)c2nc(S(C)(=O)=O)sc2N2CCOCC2)cc1 | -4.04%
50 | COc1cc(/C=C2\SC(=N)N(c3ccc(Br)cc3)C2=O)ccc1O | 2.95%
